# Out of some 310,000 compounds screened, about 2,200 (0.71%) showed an effect of 50% or more. The effect is printed as a negative number. The list shows a part of the results.
# Biological target: human ether-à-go-go-related gene (hERG) potassium channel (human, UniProt Q12809)
# Assay: primary screen, population patch clamp on CHO cells stably expressing hERG
# human ether-à-go-go-related gene (hERG) potassium channel, sequence (Q12809 whole entry, looked up): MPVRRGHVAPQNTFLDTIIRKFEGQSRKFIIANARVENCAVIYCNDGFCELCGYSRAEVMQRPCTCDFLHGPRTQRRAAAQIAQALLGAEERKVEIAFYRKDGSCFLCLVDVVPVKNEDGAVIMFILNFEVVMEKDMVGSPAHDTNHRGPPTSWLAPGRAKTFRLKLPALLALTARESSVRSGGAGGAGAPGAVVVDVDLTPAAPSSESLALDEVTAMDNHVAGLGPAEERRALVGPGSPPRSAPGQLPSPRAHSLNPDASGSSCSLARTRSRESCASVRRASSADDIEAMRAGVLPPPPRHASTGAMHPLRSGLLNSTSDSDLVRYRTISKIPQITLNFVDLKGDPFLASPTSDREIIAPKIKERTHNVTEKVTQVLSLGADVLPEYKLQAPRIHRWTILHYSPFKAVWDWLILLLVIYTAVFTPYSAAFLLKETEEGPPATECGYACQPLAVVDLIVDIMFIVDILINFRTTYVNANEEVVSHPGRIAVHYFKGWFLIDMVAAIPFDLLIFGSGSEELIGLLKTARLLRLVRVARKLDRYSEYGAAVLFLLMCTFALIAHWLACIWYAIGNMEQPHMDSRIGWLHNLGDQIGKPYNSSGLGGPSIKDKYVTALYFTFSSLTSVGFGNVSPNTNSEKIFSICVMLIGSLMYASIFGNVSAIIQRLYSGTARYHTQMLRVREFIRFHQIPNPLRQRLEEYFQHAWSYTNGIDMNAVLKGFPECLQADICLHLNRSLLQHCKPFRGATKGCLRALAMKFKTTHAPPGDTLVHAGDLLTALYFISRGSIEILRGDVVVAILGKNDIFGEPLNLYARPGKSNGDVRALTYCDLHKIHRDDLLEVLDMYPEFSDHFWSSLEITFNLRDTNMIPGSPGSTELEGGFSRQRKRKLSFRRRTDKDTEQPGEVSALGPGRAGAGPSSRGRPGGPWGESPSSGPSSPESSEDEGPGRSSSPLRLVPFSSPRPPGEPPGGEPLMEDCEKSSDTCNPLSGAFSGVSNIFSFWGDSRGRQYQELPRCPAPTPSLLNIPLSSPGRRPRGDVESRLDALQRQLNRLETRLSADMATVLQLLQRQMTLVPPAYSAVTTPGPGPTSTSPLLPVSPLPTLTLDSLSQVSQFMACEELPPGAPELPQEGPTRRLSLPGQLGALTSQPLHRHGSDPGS
row,Structure (SMILES),"hERG current change (%, negative = inhibition) at 1uM [%]"
1,Cc1ccc(CN(Cc2ccco2)C(=S)Nc2ccccc2C)cc1,7.75
2,COCCNC(=S)NNC(=O)c1cc(C2CC2)nc2ccccc12,14.8
3,COC(=O)c1c(NC(=O)c2cccc([N+](=O)[O-])c2)sc(C(N)=O)c1C,9.93
4,O=S(=O)(c1ccccc1F)N1CCCc2ccccc21,12.1
5,O=C(NC(=S)Nc1ccccc1N1CCOCC1)c1ccc(Br)cc1,10.9
6,Cn1c(C(O)c2ccccc2F)nc(Cl)c1Cl (stereo not shown),10.4
7,CC(=O)NNS(=O)(=O)c1ccccc1[N+](=O)[O-],5.24
8,Cn1nc(NC(=O)C(F)(F)F)c2ncc(-c3ccc(Cl)cc3)nc21,14.4
9,C/C=C/Cn1c(SC)nc2c1c(=O)[nH]c(=O)n2C,2.51
10,CNC(=O)NC(=O)C(C)OC(=O)c1c2c(nc3ccccc13)/C(=C/c1cccs1)CC2 (stereo not shown),0.0128
11,COc1cc(CN2CCCN(C)CC2)c([N+](=O)[O-])cc1OC,8.99
12,CCOCCCNC(=O)CCCC1=NS(=O)(=O)c2ccccc2N1,1.78
13,COc1ccccc1CN1CCNC(=O)C1CC(=O)NC1CCCCCC1 (stereo not shown),6.62
14,Cc1ccc(SCCN2CCC(NC(=O)OCc3ccccc3)CCC2=O)cc1 (stereo not shown),-4.91
15,Cc1ccc(S(=O)(=O)N2CCN(C(=O)CN3C(=O)c4ccccc4C3=O)CC2)c(C)c1,10.1
16,COC(=O)Sc1nnc(-c2ccc(Br)cc2)o1,12.1
17,COC(=O)CCSCC(=O)Nc1nnc(C)s1,7.19
18,CC1CCN(C(=O)C2(NC(=O)Nc3cccc(F)c3)CCCCC2)CC1,11.7
19,CN(C)S(=O)(=O)c1ccc(S(=O)(=O)NC2CCOC(C)(C)C2)cc1 (stereo not shown),6.09
20,O=C(Nc1ccc(Cl)cc1)c1cccc(NC2=NC3CS(=O)(=O)CC3S2)c1 (stereo not shown),-0.35

row,Structure (SMILES),"hERG current change (%, negative = inhibition) at 1uM [%]"
1,CCc1ccc(NC(=O)[C@@H](NC(=O)[C@@H]2Cc3ccccc3CN2)C(C)CC)cc1 (stereo partly shown),17.3
2,Cc1ccc(C(C(=O)Nc2ccc3c(c2)OCO3)N(C)C(=O)/C=C\c2ccc3c(c2)OCO3)cc1 (stereo not shown),12.3
3,COc1ccccc1COC(=O)c1ccc(S(=O)(=O)N2CCOCC2)cc1,13.1
4,Cc1nn(C)cc1NC(=O)c1ccc(Br)o1,11.8
5,N#Cc1nc(Cc2ccccc2)oc1NCCCn1ccnc1,2.33
6,COc1ccc(CCNc2oc(-c3ccc(OC)c(OC)c3)nc2C#N)cc1,17.2
7,CCC1(CC)C(=O)C2=C3C1[C@H](C(=O)OC)C=C(C(=O)OC)C[C@H]3[C@H]1C(=O)NC(=O)[C@H]1[C@H]2C (stereo partly shown),8.51
8,Nc1cc(=O)[nH]c(SCc2nnc(-c3ccccc3)o2)n1,7.82
9,O=C(O)c1ccc(-n2nnnc2Oc2cccc3cccnc23)cc1,10.9
10,O=C(Nc1ccon1)c1sc2cc(Cl)ccc2c1Cl,15.6
11,Cc1cccc(NC(=S)NC2CC3CCC(C2)N3Cc2ccco2)c1 (stereo not shown),-15.7
12,Cc1ccc(NC(=O)c2ccccc2SCC(=O)N2CCCC2)cc1S(=O)(=O)N(C)C,10.7
13,Cc1ccc(N(C(=O)c2csnn2)C(C(=O)NC2CCCCC2)c2ccncc2)c(C)c1 (stereo not shown),12.7
14,COc1ccc(Cl)cc1NC(=O)CN1C(=O)CC(C)S(=O)(=O)c2ccccc21 (stereo not shown),4.52
15,NC(=O)C1CCN(C(=O)CCc2nc3sc4c(c3c(=O)[nH]2)CCCC4)CC1,0.0328
16,CC(C)(C)C1CCC(=O)C(C2(O)C(=O)Nc3ccccc32)C1 (stereo not shown),12.7
17,C=CCn1c(Cc2csc(N)n2)nnc1SCC(=O)OCC,4.63
18,COc1ccc(CN2CC[C@H]3C=CC[C@@H](C(=O)N4CCOCC4)[C@H]3C2=O)cc1OC,9.79
19,CCC1Oc2ccccc2N(CC(=O)NCCN2CCc3ccccc3C2)C1=O (stereo not shown),0.326
20,CCOCCCN(C(=O)CCC(=O)Nc1cc(C)on1)C(C(=O)NC(C)(C)CC)c1cccc(OC)c1OC (stereo not shown),11.5

row,Structure (SMILES),"hERG current change (%, negative = inhibition) at 1uM [%]"
1,Cc1nc2ccccc2c(C)c1C(=O)c1ccccc1.Cl,11
2,O=C1C2CC=C(Cl)CC2C(=O)N1CC1Cc2ccccc2CO1 (stereo not shown),10.5
3,CC/C(=N\NC(=S)Nc1ccccc1)c1c(O)[nH]c(=O)[nH]c1=O,18.1
4,NC(=O)Oc1cccc(OC(N)=O)c1,12.4
5,COc1cc(C)c(C)cc1S(=O)(=O)N1CCCc2ccccc21,9.49
6,CNC(=S)N/N=C(\C)c1ccc(Cl)s1,4.12
7,CCC/C(=N/NC(=O)c1csc(C)c1C)c1ccc(Cl)s1,12.6
8,CN(C)/C=C/C(=O)c1ccncc1,14
9,O=C(CN1CCN(S(=O)(=O)c2ccc(F)cc2)CC1)Nc1ccc(F)cc1F,-36.4
10,COc1ccc(N(CC(=O)NC(C)(C)C)C(=O)c2ccco2)cc1,4.11
11,CN1CCN(CCc2nc3cc(NC(=O)c4ccco4)ccc3n2C)CC1,13.1
12,Cc1ccc(Nc2nc(N)nc(CSc3nccn3C)n2)cc1,0.957
13,COc1ccc(-c2nc(CS(=O)(=O)CC(=O)NCCCN3CCOCC3)c(C)o2)cc1,11.2
14,CCC1CCc2c(n(C)c3ccccc3c2=O)O1 (stereo not shown),8.75
15,CCCCOCCCNC(=O)c1ccc(OC)cc1,8.78
16,CSc1nc(NS(=O)(=O)c2cc(C)c(Cl)cc2Cl)nn1C,8.02
17,Cc1ccc(C(C)NC(=O)c2ccncc2)c(C)c1 (stereo not shown),11.3
18,CCc1ccc(NC(=O)CS(=O)CC(=O)NC(C)CCc2ccco2)cc1 (stereo not shown),15.1

# — PMC4336329 (PLoS ONE, 2015)
